B1: CPEB3 Ribozyme (parent)
chain: UAACAGGGGGCCACAGCAGAAGCGUUCACGUCGCAGCCCCUGUCAGAUUCUGGUGAAUCUGCGAAUUCUGCUGUAUAUCUC

The source gives no read counts; variants with many changes may rest on few reads.

The variants in the data set derive from B1. Put plainly: self-cleavage, relative activity (ratio to wild type); higher = more cleavage; in vitro, sequencing. In short, it runs like this: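 Relative activity was defined as the cleaved/total read fraction for a variant divided by the same fraction for the unmutated ribozyme. CPEB3 self-cleaving ribozyme libraries were made by rounds of error-prone PCR, barcoded, and transcribed in vitro with T7 RNA polymerase for 5 hours at 37°C, and cleavage ran through transcription plus a 15 min DNase I step before EDTA. Illumina sequencing of template-switched reverse transcripts gave the reads, and DNA sequencing mapped the barcodes. Averages come from three batches, using variants with at least 5 reads.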
As to G8U A18U A35C A56G, the self-cleavage was found to be 0.05.

In the case of G8A G10A U31C U58A, the self-cleavage is 0.07.

For the variant G8A U26A A47U A56U, the self-cleavage amounted to 0.34.

On to G8U A21G G30A C50A, for which the self-cleavage is 0.05.

With G8A A15G A21G U69C U72G, the self-cleavage is 0.05.

For G8A A28G A57G U72C, the self-cleavage came out at 0.05.

G8A A20U U48C U51A: the self-cleavage was 0.16.

G8A U25C U43C U49A: the self-cleavage was found to be 0.06.

Regarding G8U A28C U69C, the self-cleavage was found to be 0.25.

Regarding G8U A18U A65G, the self-cleavage was 0.12.

Take G8U U69A U72A: the self-cleavage amounted to 0.1.

Turning to G9A U25C C38U U72C A77G, the self-cleavage stood at 0.05.

Take G8A U25C U67A: the self-cleavage was 0.09.

Take G9A A35G C71A U80C: the self-cleavage came to 0.31.

As for G9A A15G A57G U67G U78C, the self-cleavage amounted to 0.08.

G8U A13G A15U A45U U48C U51C A64G: the self-cleavage came to 0.06.

For the variant G9A A20G A35C U60C U66C U72C, the self-cleavage came out at 0.04.

Consider G8A A13G G33C C37A, for which the self-cleavage was 0.07.

On to G9A U26C U49C U74C, for which the self-cleavage came to 0.09.

G8A U31C C32U U78C: the self-cleavage worked out at 0.06.

For G8U A21G U60C C62G U74A U80G, the self-cleavage was 0.03.

As for G8A C27A C40U U80A, the self-cleavage is 0.15.

Regarding G8A C23G U60A U67C U72A U78A, the self-cleavage is 0.04.

G9A G24A A56G A65G: the self-cleavage was determined as 0.09.

For the variant G9A A21G U26C G63U, the self-cleavage stood at 0.09.

Take G8U U74A A75G: the self-cleavage is 0.12.

In the case of G8U C40U U78C, the self-cleavage stood at 0.06.

Turning to G8U A57G U60A C62U, the self-cleavage came out at 0.14.

In the case of G8U U49A U69A, the self-cleavage turned out to be 0.18.

On to G8U U66A A77G, for which the self-cleavage amounted to 0.4.

Turning to G8A A15U A64G, the self-cleavage turned out to be 0.09.

As to G9A A20G U25C U67C U74C, the self-cleavage came out at 0.28.

Regarding G8A C12U A20U U72C, the self-cleavage turned out to be 0.04.

Take G9A A57G A64U: the self-cleavage came out at 0.14.

As to G8A G16C A20G U25A A77U U78C, the self-cleavage worked out at 0.03.

In the case of G9A A45G A56G U67C, the self-cleavage was 0.04.

On to G9A A65G U72C, for which the self-cleavage amounted to 0.08.

G8U A15G U26C U31A U67A U72C U76A: the self-cleavage was found to be 0.03.

G8U A47G U74C: the self-cleavage amounted to 0.05.

For G8A A20U G33C U72C, the self-cleavage was 0.05.

Turning to G9A A15U U31A U48C, the self-cleavage was 0.24.

Take G8A G16A A20G U41A U67A: the self-cleavage is 0.07.

As to G8A C34U C50U U54C, the self-cleavage was determined as 0.12.

Consider G8A U25C A45G U54A, for which the self-cleavage is 0.62.

As to G8U U26C U67C A77G, the self-cleavage was found to be 0.07.

On to G8A A35U U54C, for which the self-cleavage amounted to 0.17.

Consider G8A A47U U51C U58C U60C U72C, for which the self-cleavage worked out at 0.09.

In the case of G9A A15U A28G U41A A47U, the self-cleavage was found to be 0.05.

Turning to G9A A13G A28U G33A U49C G52A U69C, the self-cleavage stood at 0.05.

In the case of G8A C11U U43A U72C U78C, the self-cleavage worked out at 0.12.

Turning to G8A G10A U43A G55C, the self-cleavage came to 0.1.

For the variant G8U G9A A21G U76A U80C, the self-cleavage was 0.04.

On to G9A C14U A47U U66C, for which the self-cleavage came to 0.06.

As for G9A U26C U66C, the self-cleavage came to 0.31.

Consider G8A G22A U54C U69C G70C, for which the self-cleavage amounted to 0.06.

Take G9A A18G A20G G36C U41C C79U: the self-cleavage turned out to be 0.34.

For the variant G9A C12G A18U U31C G33A U51A U80C, the self-cleavage was 0.03.

With G8A U31A U58G U60C U67C A75G, the self-cleavage is 0.03.

With G9A A45C U72A, the self-cleavage was 0.12.

For G8U C11U U48C A57G, the self-cleavage came out at 0.06.

Turning to G7U U49A A64G U72C, the self-cleavage turned out to be 0.08.

Consider G8C C12U U26C A56G U58C, for which the self-cleavage came out at 0.07.

As for G8C U43C U66G U67G, the self-cleavage stood at 0.16.

Consider G9A A13G C29U A64G, for which the self-cleavage came out at 0.07.

For G9A G30U A64C U67G, the self-cleavage came to 0.05.

G8A A28G A35G C79U: the self-cleavage is 0.11.

As for G8A A13U A47G A56G A57G U72C, the self-cleavage was found to be 0.19.

With G9A A13G C39U C44A U54A, the self-cleavage is 0.3.

Take G8C C12U A20C G36A U67C: the self-cleavage amounted to 0.07.

Regarding G8A A56G C62A U67A, the self-cleavage came to 0.06.

On to G9A U41A U48A A56G U58G, for which the self-cleavage was determined as 0.19.

On to G9A A13U U41C, for which the self-cleavage is 0.29.

Consider G9A C12G U26A U43A A47G U72A, for which the self-cleavage was determined as 0.04.

For G9A U31C A57G U72C, the self-cleavage worked out at 0.09.

For G9A A20G U67C G73A, the self-cleavage came out at 0.76.

For G8U C40U A45U U49A U78A U80A, the self-cleavage worked out at 0.03.

For the variant G8U A21U U41C A47G, the self-cleavage came to 0.12.

Turning to G8A A13U U31G, the self-cleavage came to 0.08.

As to G8U U54C U58A, the self-cleavage turned out to be 0.07.

As for G9A A18G U26C A28G U31C, the self-cleavage is 0.06.

Consider G8U U25A U51G G61C C62U, for which the self-cleavage was found to be 0.06.

G8A U25A U41C U49C U69C U74A U78A: the self-cleavage was found to be 0.04.

With G8U C14U A21G C23A U69A, the self-cleavage amounted to 0.16.

For G9A C29G U54C U78C, the self-cleavage was determined as 0.16.

(Values after the RNAGym collection of RNA variant scans (doi:10.1093/nar/gkz1192).)
